Source: the supplement of paper PMC9151546
Most values come without repeats; read them as rough.

Tests used:
CHO-K1 [1] = experiment: micronucleus frequency (% of nucleated events); higher = more micronuclei (genotoxic)
CHO-K1 [2] = experiment: relative survival (nuclei to bead ratio vs DMSO control) (% of vehicle control); higher = more surviving cells
Description: (§1)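 Flow-cytometric in vitro micronucleus assay (Litron MicroFlow) in CHO-K1 cells in 96-well plates, 19 concentrations (4.5-200 µM, n=1 per concentration). Without S9, cells were exposed for 24 h and sampled at 48 h. With Aroclor 1254-induced rat liver S9, cells were exposed for 3-4 h and sampled at 27-28 h. Read-outs are %MN and %hypodiploid nuclei relative to nucleated events, and relative survival as the nuclei-to-bead ratio versus the 1% DMSO vehicle control (x100).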

CHO-K1 [3] = experiment: hypodiploid nuclei frequency (% of nucleated events); higher = more hypodiploid events (aneugenic)
Description: as §1
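Wherever hypodiploid nuclei frequency (% of nucleated events) is given: hypodiploid nuclei gated on a flow cytometer with 488 nm excitation after SYTOX Green staining, cultures at 37 °C, positive controls vinblastine without S9 and cyclophosphamide with S9.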
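Wherever micronucleus frequency (% of nucleated events) is given: cells lysed with nuclei stained by SYTOX Green, then micronucleus-gated events counted against nucleated events by flow cytometry with 488 nm excitation.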
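Wherever relative survival (nuclei to bead ratio vs DMSO control) is given: Lysed-cell nuclei stained with SYTOX Green and counted against counting beads by flow cytometry at 488 nm excitation, with vinblastine (no S9) and cyclophosphamide (plus S9) as positive controls.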

Cc1ccc([N+](=O)[O-])cc1N [2-Methyl-5-nitroaniline]
Settings | hypodiploid nuclei frequency, CHO-K1 [3] [%] | micronucleus frequency, CHO-K1 [1] [%] | relative survival, CHO-K1 [2]
concentration: 4.5 (µM), S9 metabolic activation: with S9, exposure time: 3-4 hours | 0.36 | 1.18 | 107
concentration: 4.5 (µM), S9 metabolic activation: without S9, exposure time: 24 hours | 3.18 | 2.96 | 99
concentration: 5.63 (µM), S9 metabolic activation: with S9, exposure time: 3-4 hours | 0.26 | 1.38 | 106
concentration: 5.63 (µM), S9 metabolic activation: without S9, exposure time: 24 hours | 2.24 | 2.28 | 105
concentration: 7.04 (µM), S9 metabolic activation: with S9, exposure time: 3-4 hours | 0.36 | 1.26 | 99.4
concentration: 7.04 (µM), S9 metabolic activation: without S9, exposure time: 24 hours | 2.46 | 2.04 | 97.8
concentration: 8.8 (µM), S9 metabolic activation: with S9, exposure time: 3-4 hours | 0.28 | 1.5 | 106
concentration: 8.8 (µM), S9 metabolic activation: without S9, exposure time: 24 hours | 2 | 2.06 | 99.8
concentration: 11 (µM), S9 metabolic activation: with S9, exposure time: 3-4 hours | 0.28 | 1.44 | 109
concentration: 11 (µM), S9 metabolic activation: without S9, exposure time: 24 hours | 2.18 | 2.4 | 94.3
concentration: 13.7 (µM), S9 metabolic activation: with S9, exposure time: 3-4 hours | 0.18 | 1.2 | 133
concentration: 13.7 (µM), S9 metabolic activation: without S9, exposure time: 24 hours | 1.9 | 2.5 | 95.8
concentration: 17.2 (µM), S9 metabolic activation: with S9, exposure time: 3-4 hours | 0.2 | 1.2 | 109
concentration: 17.2 (µM), S9 metabolic activation: without S9, exposure time: 24 hours | 1.68 | 2.7 | 114
concentration: 21.5 (µM), S9 metabolic activation: with S9, exposure time: 3-4 hours | 0.4 | 1.58 | 113
concentration: 21.5 (µM), S9 metabolic activation: without S9, exposure time: 24 hours | 1.52 | 2.52 | 95.1
concentration: 26.8 (µM), S9 metabolic activation: with S9, exposure time: 3-4 hours | 0.28 | 1.22 | 101
concentration: 26.8 (µM), S9 metabolic activation: without S9, exposure time: 24 hours | 2.92 | 1.76 | 88.2
concentration: 33.6 (µM), S9 metabolic activation: with S9, exposure time: 3-4 hours | 0.36 | 1.56 | 114
concentration: 33.6 (µM), S9 metabolic activation: without S9, exposure time: 24 hours | 2.16 | 1.44 | 107
concentration: 41.9 (µM), S9 metabolic activation: with S9, exposure time: 3-4 hours | 0.3 | 1.54 | 113
concentration: 41.9 (µM), S9 metabolic activation: without S9, exposure time: 24 hours | 1.6 | 2.08 | 95.5
concentration: 52.4 (µM), S9 metabolic activation: with S9, exposure time: 3-4 hours | 0.34 | 1.36 | 121
concentration: 52.4 (µM), S9 metabolic activation: without S9, exposure time: 24 hours | 2.2 | 1.96 | 98.2
concentration: 65.5 (µM), S9 metabolic activation: with S9, exposure time: 3-4 hours | 0.36 | 1.52 | 122
concentration: 65.5 (µM), S9 metabolic activation: without S9, exposure time: 24 hours | 2.56 | 3.08 | 89.2
concentration: 81.9 (µM), S9 metabolic activation: with S9, exposure time: 3-4 hours | 0.5 | 1.46 | 126
concentration: 81.9 (µM), S9 metabolic activation: without S9, exposure time: 24 hours | 2.12 | 2.14 | 116
concentration: 102 (µM), S9 metabolic activation: with S9, exposure time: 3-4 hours | 0.3 | 1.98 | 118
concentration: 102 (µM), S9 metabolic activation: without S9, exposure time: 24 hours | 2.14 | 2.24 | 94.3
concentration: 128 (µM), S9 metabolic activation: with S9, exposure time: 3-4 hours | 0.38 | 2.56 | 110
concentration: 128 (µM), S9 metabolic activation: without S9, exposure time: 24 hours | 2.28 | 2.52 | 96.2
concentration: 160 (µM), S9 metabolic activation: with S9, exposure time: 3-4 hours | 0.4 | 1.84 | 113
concentration: 160 (µM), S9 metabolic activation: without S9, exposure time: 24 hours | 2.32 | 2.96 | 105
concentration: 200 (µM), S9 metabolic activation: with S9, exposure time: 3-4 hours | 0.4 | 2.08 | 123
concentration: 200 (µM), S9 metabolic activation: without S9, exposure time: 24 hours | 2.58 | 4.04 | 85.7

CCCCCCCC1CCC(=O)O1 (centres undefined) [5-Heptyldihydro-2(3H)-furanone]
hypodiploid nuclei frequency [%], CHO-K1 [3]
Settings | S9 metabolic activation: with S9, exposure time: 3-4 hours | S9 metabolic activation: without S9, exposure time: 24 hours
concentration: 4.5 (µM) | 0.3 | 0.3
concentration: 5.63 (µM) | 0.18 | 0.46
concentration: 7.04 (µM) | 0.28 | 0.36
concentration: 8.8 (µM) | 0.22 | 0.46
concentration: 11 (µM) | 0.18 | 0.38
concentration: 13.7 (µM) | 0.16 | 0.54
concentration: 17.2 (µM) | 0.08 | 0.68
concentration: 21.5 (µM) | 0.44 | 0.46
concentration: 26.8 (µM) | 0.32 | 0.58
concentration: 33.6 (µM) | 0.26 | 0.6
concentration: 41.9 (µM) | 0.36 | 0.6
concentration: 52.4 (µM) | 0.32 | 0.44
concentration: 65.5 (µM) | 0.36 | 0.48
concentration: 81.9 (µM) | 0.24 | 0.66
concentration: 102 (µM) | 0.34 | 0.62
concentration: 128 (µM) | 0.26 | 0.76
concentration: 160 (µM) | 0.38 | 0.68
concentration: 200 (µM) | 0.16 | 0.96
